# According to the antibiotic and cytotoxicity screens of Wong et al. (2023):
# The other results are listed elsewhere or left out.
# System: HepG2
# Experiment: cytotoxicity call (relative viability < 0.9)
# Conditions: 10 µM
row,Compound,cytotoxicity call
1,O=C(C[C@@H]1C[C@H]2c3cc(NC(=O)Cc4ccncc4)ccc3O[C@H]2[C@@H](CO)O1)NCCN1CCCCC1,inactive
2,C[C@H](CO)N1C[C@H](C)[C@@H](CN(C)CC2CCCCC2)Oc2c(NS(=O)(=O)c3cn(C)cn3)cccc2C1=O,inactive
3,COc1ccc(CNC(=O)C[C@@H]2C[C@H]3c4cc(NC(=O)NC5CCCC5)ccc4O[C@H]3[C@H](CO)O2)cc1,inactive
4,C[C@@H]1CN([C@@H](C)CO)C(=O)c2cc(NC(=O)Nc3cccc4ccccc34)ccc2O[C@@H]1CN(C)S(=O)(=O)c1ccccc1,inactive
5,COc1ccc(CN2C[C@@H](C)[C@H](OC)CN(C)C(=O)c3cc(NC(=O)c4nc5ccccc5s4)ccc3OC[C@H]2C)cc1,inactive
6,COc1cccc(S(=O)(=O)N(C)C[C@H]2Oc3ncc(C#CC(C)C)cc3C(=O)N([C@@H](C)CO)C[C@@H]2C)c1,inactive
7,COc1ccc(S(=O)(=O)Nc2ccc3c(c2)CC(=O)N([C@H](C)CO)C[C@@H](C)[C@@H](CN(C)S(=O)(=O)c2c(C)noc2C)O3)cc1,inactive
8,C[C@@H]1CN([C@H](C)CO)C(=O)CCCn2cc(nn2)CO[C@H]1CN(C)C(=O)Nc1cccc(C(F)(F)F)c1,inactive
9,CO[C@@H](CN(C)C(=O)c1ccc2c(c1)OCO2)[C@H](C)CN([C@@H](C)CO)S(=O)(=O)c1ccc(F)cc1,inactive
10,Cc1noc(C)c1S(=O)(=O)N(C)C[C@@H]1Oc2ccc(NC(=O)C3CC3)cc2CC(=O)N([C@H](C)CO)C[C@H]1C,inactive
11,C[C@H]1CCCCO[C@H](CN(C)C(=O)Nc2ccc3c(c2)OCO3)[C@@H](C)CN([C@@H](C)CO)C(=O)c2cc(NC(=O)CCC(F)(F)F)ccc2O1,inactive
12,COCC#Cc1ccc2c(c1)O[C@H](CN(C)S(=O)(=O)c1ccc(OC)cc1)[C@H](C)CN([C@H](C)CO)S2(=O)=O,inactive
13,C[C@@H]1CN([C@@H](C)CO)C(=O)c2cc(N(C)C)ccc2O[C@@H](C)CCCCO[C@@H]1CN(C)Cc1ccc(C(F)(F)F)cc1,inactive
14,COCC(=O)N(C)C[C@@H]1Oc2cc(C#Cc3ccccc3)ccc2S(=O)(=O)N([C@@H](C)CO)C[C@@H]1C,inactive
15,Cc1ccc(-c2cnc3c(c2)C(=O)N([C@@H](C)CO)C[C@@H](C)[C@@H](CN(C)C(=O)Cc2ccncc2)O3)cc1,inactive
16,C[C@H]1CN([C@@H](C)CO)C(=O)c2cc(NS(C)(=O)=O)ccc2O[C@H]1CN(C)S(=O)(=O)c1cn(C)cn1,inactive
17,C[C@H]1CN([C@@H](C)CO)C(=O)c2cc(NC(=O)Cn3cnnn3)ccc2O[C@@H]1CN(C)Cc1ccc(Cl)c(Cl)c1,inactive
18,CCS(=O)(=O)N1C[C@]2(C1)CN([C@H](CO)c1c2c2ccc(cc2n1C)OC)C(=O)CN1CCOCC1,inactive
19,C[C@@H]1CN([C@@H](C)CO)C(=O)Cc2cc(NC(=O)C3CCCCC3)ccc2O[C@@H]1CN(C)S(C)(=O)=O,inactive
20,C[C@@H]1CN([C@@H](C)CO)C(=O)c2cc(NC(=O)c3ccccc3)ccc2O[C@@H](C)CCCCO[C@H]1CN(C)C(=O)C1CCCCC1,inactive

row,Compound,cytotoxicity call
1,COc1ccc(NC(=O)N(C)C[C@@H]2Oc3ccc(NC(=O)CCCCCC(=O)Nc4ccccc4N)cc3CC(=O)N([C@@H](C)CO)C[C@H]2C)cc1,inactive
2,Cc1ccc(S(=O)(=O)N(C)C[C@@H]2Oc3ccc(NC(=O)NC(C)C)cc3CC(=O)N([C@H](C)CO)C[C@H]2C)cc1,inactive
3,C[C@@H]1CN([C@H](C)CO)C(=O)c2cc(NC(=O)Nc3ccc(C(F)(F)F)cc3)ccc2O[C@@H](C)CCCCO[C@@H]1CN(C)Cc1ccc(Cl)c(Cl)c1,inactive
4,C[C@@H]1CN([C@@H](C)CO)C(=O)c2cccc(NC(=O)c3nc4ccccc4s3)c2O[C@@H]1CN(C)CC1CCCCC1,active
5,CO[C@@H]1CN(C)C(=O)c2ccc(NC(=O)Nc3ccccc3F)cc2OC[C@@H](C)N(C(=O)Nc2ccccc2F)C[C@H]1C,inactive
6,CC[C@@]1(O)C[C@H](O[C@H]2C[C@H](N(C)C)[C@H](O[C@H]3C[C@H](O)[C@H](O[C@H]4CCC(=O)[C@H](C)O4)[C@H](C)O3)[C@H](C)O2)c2c(cc3c(c2O)C(=O)c2c(O)cccc2C3=O)[C@H]1C(=O)OC,active
7,C[C@@H]1CN([C@@H](C)CO)C(=O)c2cccc(NC(=O)C3CC3)c2O[C@@H]1CN(C)S(=O)(=O)c1cccs1,inactive
8,COc1ccc(NC(=O)N(C)C[C@H]2OCc3ccccc3-c3c(n(C)c4ccccc34)C(=O)N([C@H](C)CO)C[C@H]2C)c(OC)c1,inactive
9,Cc1noc(C)c1NC(=O)Nc1ccc2c(c1)C(=O)N([C@H](C)CO)C[C@H](C)[C@H](CN(C)C(=O)Nc1c(C)noc1C)OCCCC[C@@H](C)O2,inactive
10,O=C(CN1CCOCC1)NCC[C@H]1CC[C@H](NC(=O)c2ccc3c(c2)OCO3)[C@H](CO)O1,inactive
11,CC(C)NC(=O)N(C)C[C@H]1Oc2cc(C#Cc3ccc(F)cc3)ccc2S(=O)(=O)N([C@@H](C)CO)C[C@@H]1C,inactive
12,COc1ccc(S(=O)(=O)N(C)C[C@@H]2Oc3c(NC(=O)c4cc(C)nn4C)cccc3C(=O)N([C@@H](C)CO)C[C@H]2C)cc1,inactive
13,Cc1ccc(S(=O)(=O)N(C)C[C@H]2OCCCC[C@H](C)Oc3ccc(NC(=O)CCCCCC(=O)Nc4ccccc4N)cc3C(=O)N([C@@H](C)CO)C[C@@H]2C)cc1,inactive
14,C[C@@H]1CN([C@@H](C)CO)C(=O)c2c(c3ccccc3n2C)-c2ccccc2CO[C@@H]1CN(C)Cc1cccc(C(=O)O)c1,inactive
15,C[C@@H]1CCCCO[C@H](CN(C)S(=O)(=O)c2ccc(F)cc2)[C@@H](C)CN([C@H](C)CO)C(=O)c2cc(NC(=O)Cc3ccccc3)ccc2O1,active
16,COc1nn(C)cc1C(=O)NC1=NCCS1,inactive
17,Cc1noc(C)c1S(=O)(=O)Nc1ccc2c(c1)CC(=O)N([C@@H](C)CO)C[C@H](C)[C@@H](CN(C)S(C)(=O)=O)O2,inactive
18,COc1ccc(S(=O)(=O)N(C)C[C@H]2Oc3c(NS(=O)(=O)c4c(C)noc4C)cccc3C(=O)N([C@@H](C)CO)C[C@@H]2C)cc1,inactive
19,C[C@@H]1CCCCO[C@H](CN(C)C(=O)Nc2cccc3ccccc23)[C@H](C)CN([C@H](C)CO)C(=O)c2cc(NS(=O)(=O)c3ccc(Cl)cc3)ccc2O1,active
20,COCC(=O)N(C)C[C@H]1Oc2cc(-c3ccc(OC)cc3)ccc2S(=O)(=O)N([C@@H](C)CO)C[C@@H]1C,inactive
